# Laboratory results as given in PubChem BioAssay AID894 (National Center for Advancing Translational Sciences (NCATS), 2007).
# Where “and” joins values, the source holds several entries; their conditions need not be identical. Identical values can stand only once. Hit rate of the full screen: of about 150,000 compounds, about 6,500 (4.3%) were called active. Inconclusive means that the source gave no clear call. Such entries were picked first, then a sample of the others. Calls come from the whole dose curve; as a rule, active = well fitted inhibition curve with a large enough effect (not every such curve was filed as active); inconclusive = small, poorly fitted or top-dose-only effect, or another doubt; inactive = no such curve, though single readings can be large or run the other way. Potencies of inconclusive entries are doubtful fits and often do not repeat.
# Molecular target: 15-hydroxyprostaglandin dehydrogenase [NAD(+)] (Homo sapiens) (UniProt P15428)
# Assay: qHTS Assay for Inhibitors of HPGD (15-Hydroxyprostaglandin Dehydrogenase)
# Conditions: purified HPGD, NADH fluorescence kinetic, PGE2 substrate; activity change, negative = inhibition: stronger effect = lower value
# Description: Human 15-Hydroxyprostaglandin dehydrogenase (HPGD) catalyzes the inactivation of prostaglandin E2, and plays a major role in cancer biology by antagonizing the oncogenic potential of cyclooxygenase type 2 (COX2). Assays are available, based on absorbance/fluorescence increase of NADH with the substrate 15-OH prostaglandin E2. References 1. Myung SJ, Rerko RM, Yan M, Platzer P, Guda K, Dotson A, Lawrence E, Dannenberg AJ, Lovgren AK, Luo G, Pretlow TP, Newman RA, Willis J, Dawson D, Markowitz SD. 15-Hydroxyprostaglandin dehydrogenase is an in vivo suppressor of colon tumorigenesis. […] 2. Yan M, Rerko RM, Platzer P, Dawson D, Willis J, Tong M, Lawrence E, Lutterbaugh J, Lu S, Willson JK, Luo G, Hensold J, Tai HH, Wilson K, Markowitz SD. 15-Hydroxyprostaglandin dehydrogenase, a COX-2 oncogene antagonist, is a TGF-beta-induced suppressor of human gastrointestinal cancers. Proc Natl Acad Sci U S A. 2004 Dec 14;101(50):17468-73. 3. Yang L, Amann JM, Kikuchi T, Porta R, Guix M, Gonzalez A, Park KH, Billheimer D, Arteaga CL, Tai HH, Dubois R, Carbone DP, Johnson DH. Inhibition of Epidermal Growth Factor Receptor Signaling Elevates 15-Hydroxyprostaglandin Dehydrogenase in Non-Small-Cell Lung Cancer. Cancer Res. 2007 Jun 15;67(12):5587-5593. Inhibition of HPGD activity was screened by utilizing prostaglandin as an electron donor and NAD+ as an electron acceptor/cofactor. An increase in the fluorescence intensity due to conversion of NAD+ to NADH was used to measure the enzyme activity. NIH Chemical Genomics Center [NCGC] Structural Genomics Consortium [SGC]
# Buffer: 50 mM Tris-HCl, 0.01% Tween 20, pH 8. Enzyme Buffer: 50 mM Tris-HCl, 0.5 mM NAD+ and 0.01% Tween 20, pH 8. Reagents/Controls: Buffer in columns 3 and 4 as negative control (no enzyme). Substrate/cofactor solution: 1 mM NAD+ and 30 uM prostaglandin (Sigma, prostaglandin E2, # P5640) final concentrations dispensed throughout the plate. Enzyme: 20 nM HPGD final concentration in columns 1, 2, 5-48. Column 1 and 2 is neutral (100% activity). A titration of control inhibitor GW5074 (G6416 Sigma-Aldrich, St. Louis, MO) top concentration 10 mM in DMSO, then 1:2 dilution for a total of 16 concentrations in duplicate) was pin-transferred into column 2. Assay Steps: Three uL of enzyme were dispensed to 1536-well Greiner black solid bottom plates. Compounds and control inhibitor (23 nL) were transferred via Kalypsys PinTool. The plates were incubated for 15 min at room temperature, and then 1 uL of substrate/cofactor solution was added to start the reaction. The plates were immediately transferred to and read 5 times every 30 seconds on ViewLux High-throughput CCD imager (Perkin-Elmer) using 360 nm excitation and 450 nm emission fluorescence protocol. The fluorescence intensity difference between the last and the first time points was used to compute reaction progress.
# % is set by controls: 0 for no effect and ±100 for the full control effect; potency is the fitted concentration of half-maximal effect; tags give direction and shape of the fitted curve.
# Sequence of UniProt P15428 (P15428 whole entry, looked up): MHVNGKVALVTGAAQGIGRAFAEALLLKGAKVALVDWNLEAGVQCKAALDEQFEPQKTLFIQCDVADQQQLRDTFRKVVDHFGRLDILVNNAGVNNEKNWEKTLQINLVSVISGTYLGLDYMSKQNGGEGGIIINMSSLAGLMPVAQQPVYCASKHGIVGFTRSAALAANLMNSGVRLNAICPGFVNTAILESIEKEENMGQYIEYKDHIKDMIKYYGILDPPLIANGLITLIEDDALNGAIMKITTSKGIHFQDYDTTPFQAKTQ
SMILES,Potency,"activity change, negative = inhibition"
CCOC(=O)C1CCCN(c2ncnc3c2[nH]c2cccc(OC)c23)C1 (stereo not drawn),"inconclusive: 14.1 µM [inhibitor, partial curve]",
CCN(CC)C(=O)c1c(NC(=O)c2ccccc2)sc(C)c1C,,inactive: -10.7%
Brc1ccc(-c2cn3c(n2)CCc2ccc4cccnc4c2-3)cc1,"inconclusive: 28.2 µM [inhibitor, partial curve]",
O=C(Oc1oc(-c2ccco2)nc1C=Nc1ccccc1)c1ccco1,active: 2 µM,
COc1ccc(/C=C/C(=O)NCCCc2ccccc2)cc1,,inactive: -16.8%
CCCOC(=O)c1ccc(NC(=O)c2c(Cl)ccc(Cl)c2OC)cc1,,inactive: -7.86%
O=C1C=CC(=O)C2=C1C1c3ccccc3C2c2ccccc21,active: 1.12 µM,
CC(C)c1ccc2c(c1)c(SC(C)(C)C)c(CC(C)(C)C(=O)O)n2Cc1ccc(Cl)cc1,"inconclusive: 15.8 µM [inhibitor, partial curve, poor fit] and inconclusive: 35.5 µM [inhibitor, single point]",
Cc1nn(-c2ccccc2)c(Cl)c1/C=N/NC(=O)c1ccccc1NS(=O)(=O)c1cccs1,"inconclusive: 22.4 µM [inhibitor, partial curve, poor fit]",
COc1ccc(OC)c(C2C3=C(COC3=O)Nc3cc4c(cc32)OCO4)c1 (stereo not drawn),"inconclusive: 25.1 µM [inhibitor, single point]",
Cc1c(-c2ccccc2)sc(Br)c1C(=O)N1CCOCC1,active: 1.58 µM,
C[C@@H](CCc1ccccc1)NC[C@H](O)c1ccc(O)c(C(N)=O)c1,"inconclusive: 15.8 µM [inhibitor, partial curve, poor fit]",
CC(C)CCNC(=O)c1ccc(CSCc2cccc(F)c2)o1,active: 14.1 µM,
COCCOC(=O)c1c(C)n(C)c2ccc(OC(=O)N3CCOCC3)cc12,,inactive: -18.3%
CCOc1ccc2sc(NS(=O)(=O)c3ccc(OC)c(OC)c3)nc2c1,active: 15.8 µM,
COc1ccc(-c2nc3ccccc3c(=O)n2CCOc2ccccc2C)cc1,,inactive: -27%
CCn1c(C)nc2cc(S(=O)(=O)C(F)(F)C(F)C(F)(F)F)ccc21 (stereo not drawn),"inconclusive: 22.4 µM [inhibitor, partial curve]",
Cc1nn(C)c(C)c1/C=N/N=C1\CCC2C3CCc4cc(O)ccc4C3CCC12C (stereo not drawn),,inactive: -9.16%
O=C(NCCc1ccccc1)C(NS(=O)(=O)c1cccc2nsnc12)c1ccccc1 (stereo not drawn),,inactive: -15.7%
Cc1ccccc1Cn1cnc2c(nnn2Cc2ccc(F)cc2)c1=O,,inactive: -10.4%
Cc1ccc(/C=C/C(=O)NCc2cccs2)cc1,active: 14.1 µM,
N/C(=N\OC(=O)c1ccccc1Cl)c1cccnc1,"inconclusive: 22.4 µM [inhibitor, partial curve]",
CCOC(=O)c1c(N)sc2c1CCC(C)C2 (stereo not drawn),"inconclusive: 39.8 µM [inhibitor, single point]",
COc1ccc(C(=O)NCCn2ccc3ccccc32)c(OC)c1,"inconclusive: 31.6 µM [inhibitor, partial curve]",
O=C(CSc1nnc2ccccn12)NCc1cccs1,"inconclusive: 31.6 µM [inhibitor, partial curve]",

SMILES,Potency,"activity change, negative = inhibition"
CCC(C)(C)C1CCc2c(sc(NC(=O)c3cccs3)c2C(N)=O)C1 (stereo not drawn),"inconclusive: 22.4 µM [inhibitor, partial curve]",
Cc1cc(C(=O)NCc2ccc(S(N)(=O)=O)cc2)cs1,,inactive: -8.1%
CCOC(=O)N1CCN(c2ccc(C(F)(F)F)cn2)CC1,"inconclusive: 28.2 µM [inhibitor, partial curve]",
CC(C)CC(=O)Nc1ccc2oc(-c3cccnc3)nc2c1,"inconclusive: 28.2 µM [inhibitor, partial curve]",
Cc1ccc(C(=O)NNC(=O)CCN2C(=O)C3CCCCC3C2=O)cc1 (stereo not drawn),,inactive: -4.51%
Cc1cc(C)c2c(N)c(S(=O)(=O)Cc3ccccc3)sc2n1,active: 22.4 µM,
CC[C@H]1C(c2cccc(C)c2)=NN(c2ccccc2)[C@@H]1CO,"inconclusive: 35.5 µM [inhibitor, partial curve]",
S=C(c1ccc2c(c1)OCO2)N1CCCCCC1,"inconclusive: 22.4 µM [inhibitor, partial curve, poor fit]",
c1ccc2c(c1)Nc1nccnc1S2,"inconclusive: 39.8 µM [inhibitor, single point]",
Cc1c(/C=C/C(=O)c2ccc(Cl)s2)cnn1C,"inconclusive: 20 µM [inhibitor, partial curve, poor fit]",
Cn1c(SCc2nnc3n2CCCCC3)nc2ccccc21,active: 25.1 µM,
O=C(CCc1ccccc1)Nc1cccc(-c2nnc(-c3ccco3)o2)c1,"inconclusive: 31.6 µM [inhibitor, partial curve]",
Cc1ccc(N2CCN(C(=O)c3ccccc3Br)CC2)c(C)c1,active: 25.1 µM,
c1cc(C(c2nnnn2C2CCCCC2)N2CCN3CCCC3C2)ccn1 (stereo not drawn),,inactive: -15.6%
Cc1cc(NC(=O)C(C)C)ncc1NC(=O)CCc1ccccc1,,inactive: 4.86%
CCCCS(=O)(=O)Nc1ccc2c(c1)ncn2C1CCCCC1,"inconclusive: 28.2 µM [inhibitor, partial curve, poor fit]",
Cc1ccccc1CN(c1ccc(C(=O)Nc2ccccc2C(=O)NCc2ccco2)cc1)S(C)(=O)=O,"inconclusive: 35.5 µM [inhibitor, partial curve]",
O=C(Nc1ccc(Cl)c(Cl)c1)C1=Cc2ccccc2OC1,"inconclusive: 25.1 µM [inhibitor, partial curve]",
CCOC(=O)C1CCCN(C(=O)c2cc3c(-c4cccc(OC)c4)nn(C)c3s2)C1 (stereo not drawn),,inactive: -10%
COc1ccc(OC)c(-c2cc(C(=O)NCc3ccco3)no2)c1,"inconclusive: 15.8 µM [inhibitor, partial curve]",
CC1CCCCN1S(=O)(=O)c1ccc(NC(=O)c2cccc(-n3cnnn3)c2)cc1 (stereo not drawn),active: 22.4 µM,
Cc1nn2c(N)c(C#N)cnc2c1-c1ccc(Cl)cc1,"inconclusive: 20 µM [inhibitor, partial curve]",
COc1ccc2nc3sc(C(=O)NCc4cccs4)c(N)c3cc2c1,"inconclusive: 12.6 µM [inhibitor, partial curve]",
CCOC(=O)c1sc(NC(=O)/C=C/c2ccccc2)nc1C,"inconclusive: 31.6 µM [inhibitor, partial curve]",
CC/C(=C(/CC)c1ccc(O)cc1)c1ccc(O)cc1,,inactive: -12.9% and inactive: -18.7%

SMILES,Potency,"activity change, negative = inhibition"
CCNC(=O)NC(=O)CSc1ccccc1F,,inactive: 3.85%
Cc1csc2nc(CSc3ccc(Cl)cc3)cn12,"inconclusive: 17.8 µM [inhibitor, partial curve]",
CCC1CCc2c(sc(NC(=O)c3ccoc3C)c2C(N)=O)C1 (stereo not drawn),"inconclusive: 35.5 µM [inhibitor, single point]",
O=C(C1CCCCC1)N1CCC(n2nnc3ccccc32)CC1,,inactive: -4.37%
CCN(CC)c1ccc(/C=N/Nc2nc3ccccc3[nH]2)cc1,"inconclusive: 8.91 µM [inhibitor, partial curve]",
CCNc1ncc2nc(-c3ccccc3)c(=O)n(CCc3ccccc3)c2n1,"inconclusive: 28.2 µM [inhibitor, partial curve]",
C=C(C)COc1ccc(-c2[nH]ncc2Oc2ccccc2OCC)c(O)c1,active: 17.8 µM,
O=C(CN1CCC(n2nnc3cc(F)ccc32)CC1)NCCc1nc2ccccc2[nH]1,,inactive: -4.69%
COc1ccc(-c2cc(=O)c3c(OC(C)=O)cc(OC(C)=O)cc3o2)cc1,"inconclusive: 28.2 µM [inhibitor, partial curve]",
Cn1c(C(=O)NCC2CCCO2)cc2c(=O)[nH]c3ccccc3c21 (stereo not drawn),"inconclusive: 17.8 µM [inhibitor, partial curve]",
CC(=O)Nc1ccc(OC(=O)c2ccc(Cl)cc2)cc1,,inactive: -15.2%
COc1ccc2nc(NC(=O)C3CCCN(S(=O)(=O)c4cccc5nonc45)C3)sc2c1 (stereo not drawn),,inactive: -15.6%
O=C(Nc1ccc(S(=O)(=O)N2CCCCCC2)cc1)c1ccc(Br)o1,"inconclusive: 25.1 µM [inhibitor, single point]",
N#Cc1cccc(NC(=O)N2CC3(CCN(C(=O)c4cnccn4)CC3)C2)c1,,inactive: -22.3%
CCOc1ccc(-n2c(N)c(C(=O)NCC3CCCO3)sc2=S)cc1 (stereo not drawn),active: 8.91 µM,
O=C(O)c1ccc(-n2cccc2)cc1O,"inconclusive: 28.2 µM [inhibitor, partial curve]",
NS(=O)(=O)c1ccc(NC(=S)NC2CCCC2)cc1,active: 14.1 µM,
CCCN(CCC)C(=O)COc1cc(=O)n(CC)c2ccccc12,active: 25.1 µM,
Cc1ccc(Cn2ccc(NC(=O)c3cc4nc(-c5ccco5)cc(C(F)(F)F)n4n3)n2)cc1,"inconclusive: 22.4 µM [inhibitor, partial curve]",
CCOc1ccc2[nH]c(=O)c(CN(CCO)C(=O)CC)cc2c1,"inconclusive: 35.5 µM [inhibitor, partial curve]",
COC(=O)c1ccc(C2CC(=O)Nc3cc(OC)c(OC)c(OC)c32)cc1 (stereo not drawn),"inconclusive: 35.5 µM [inhibitor, single point]",
C=CCn1c(-c2cccs2)nc2nc3ccccc3nc21,"inconclusive: 28.2 µM [inhibitor, partial curve]",
CCCCCn1cnc2c(sc3nc4c(cc32)CSC(C)(C)C4)c1=O,"inconclusive: 17.8 µM [inhibitor, partial curve, poor fit]",
